# Experimental data taken from the supplement of paper PMC8728848.
# The list shows a part of the results.
# B1: SBD-G4S3-SBD (protein)
# chain: MASIPSSASVQLDSYNYDGSTFSGKIYVKNIAYSKKVTVVYADGSDNWNNNGNIIAASFSGPISGSNYEYWTFSASVKGIKEFYIKYEVSGKTYYDNNNSANYQVSTGGGGSGGGGSGGGGSEFASIPSSASVQLDSYNYDGSTFSGKIYVKNIAYSKKVTVVYADGSDNWNNNGNIIAASFSGPISGSNYEYWTFSASVKGIKEFYIKYEVSGKTYYDNNNSANYQVST
# Experiments:
# Assay in all cases: glycan array binding signal (z-score within array); higher = stronger binding
# Conditions in all cases: glycan notation: IUPAC condensed, linker removed
# [1] = molecular target: Fuc(a1-3)GlcNAc
# In short: (§1)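 Glycan array binding is given as a within-array Z-score, which can be read as non-binding when negative. The arrays, 3228 of them, came from the Consortium for Functional Glycomics database and were retained only where the protein sequence was available. Z-scores were averaged across arrays of the same protein sequence at different concentrations or buffers and across linkers.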
# [2] = molecular target: Fuc(a1-3)[Gal(b1-4)]Glc6S
# In short: as §1
# [3] = molecular target: Fuc(a1-3)[Gal(b1-4)]GlcNAc
# In short: as §1
# [4] = molecular target: Fuc(a1-3)[Gal(b1-4)]GlcNAc(b1-2)Man
# In short: as §1
# [5] = molecular target: Fuc(a1-3)[Gal(b1-4)]GlcNAc(b1-2)Man(a1-3)[Fuc(a1-3)[Gal(b1-4)]GlcNAc(b1-2)Man(a1-6)]Man(b1-4)GlcNAc(b1-4)GlcNAc
# In short: as §1
# [6] = molecular target: Fuc(a1-3)[Gal(b1-4)]GlcNAc(b1-2)Man(a1-3)[Fuc(a1-3)[Gal(b1-4)]GlcNAc(b1-2)Man(a1-6)]Man(b1-4)GlcNAc(b1-4)[Fuc(a1-6)]GlcNAc
# In short: as §1
# [7] = molecular target: Fuc(a1-3)[Gal(b1-4)]GlcNAc(b1-3)Gal(b1-3)[Fuc(a1-4)]GlcNAc
# In short: as §1
# [8] = molecular target: Fuc(a1-3)[Gal(b1-4)]GlcNAc(b1-3)Gal(b1-4)[Fuc(a1-3)]GlcNAc
# In short: as §1
# [9] = molecular target: Fuc(a1-3)[Gal(b1-4)]GlcNAc(b1-3)Gal(b1-4)[Fuc(a1-3)]GlcNAc(b1-3)Gal(b1-4)[Fuc(a1-3)]GlcNAc
# In short: as §1
# [10] = molecular target: Fuc(a1-3)[Gal(b1-4)]GlcNAc(b1-3)GalNAc
# In short: as §1
# [11] = molecular target: Fuc(a1-3)[Gal(b1-4)]GlcNAc(b1-6)GalNAc
# In short: as §1
# [12] = molecular target: Fuc(a1-3)[Gal(b1-4)]GlcNAc(b1-6)[Gal(b1-3)GlcNAc(b1-3)]Gal(b1-4)Glc
# In short: as §1
# [13] = molecular target: Fuc(a1-3)[Gal(b1-4)]GlcNAc6S
# In short: as §1
# [14] = molecular target: Fuc(a1-3)[Gal3S(b1-4)]Glc
# In short: as §1
# [15] = molecular target: Fuc(a1-3)[Gal3S(b1-4)]GlcNAc
# In short: as §1
# [16] = molecular target: Fuc(a1-3)[Gal3S(b1-4)]GlcNAc6S
# In short: as §1
# [17] = molecular target: Fuc(a1-3)[GalNAc(b1-4)]GlcNAc
# In short: as §1
# [18] = molecular target: Fuc(a1-3)[GalNAc(b1-4)]GlcNAc6S
# In short: as §1
# [19] = molecular target: Fuc(a1-4)GlcNAc
# In short: as §1
# [20] = molecular target: Fuc(b1-3)GlcNAc
# In short: as §1
# [21] = molecular target: Gal(a1-2)Gal
# In short: as §1
# [22] = molecular target: Gal(a1-3)Gal
# In short: as §1
# [23] = molecular target: Gal(a1-3)Gal(b1-3)GlcNAc
# In short: as §1
# [24] = molecular target: Gal(a1-3)Gal(b1-3)GlcNAc(b1-2)Man
# In short: as §1
# [25] = molecular target: Gal(a1-3)Gal(b1-3)GlcNAc(b1-2)Man(a1-3)[Gal(a1-3)Gal(b1-3)GlcNAc(b1-2)Man(a1-6)]Man(b1-4)GlcNAc(b1-4)GlcNAc
# In short: as §1
# [26] = molecular target: Gal(a1-3)Gal(b1-3)GlcNAc(b1-3)GalNAc
# In short: as §1
# [27] = molecular target: Gal(a1-3)Gal(b1-3)GlcNAc(b1-6)GalNAc
# In short: as §1
# [28] = molecular target: Gal(a1-3)Gal(b1-3)[Fuc(a1-4)]GlcNAc(b1-2)Man(a1-3)[Gal(a1-3)Gal(b1-3)[Fuc(a1-4)]GlcNAc(b1-2)Man(a1-6)]Man(b1-4)GlcNAc(b1-4)GlcNAc
# In short: as §1
# [29] = molecular target: Gal(a1-3)Gal(b1-4)Glc
# In short: as §1
# [30] = molecular target: Gal(a1-3)Gal(b1-4)GlcNAc
# In short: as §1
# [31] = molecular target: Gal(a1-3)Gal(b1-4)GlcNAc(b1-2)Man
# In short: as §1
# [32] = molecular target: Gal(a1-3)Gal(b1-4)GlcNAc(b1-2)Man(a1-3)[Gal(a1-3)Gal(b1-4)GlcNAc(b1-2)Man(a1-6)]Man(b1-4)GlcNAc(b1-4)GlcNAc
# In short: as §1
# [33] = molecular target: Gal(a1-3)Gal(b1-4)GlcNAc(b1-3)GalNAc
# In short: as §1
# [34] = molecular target: Gal(a1-3)Gal(b1-4)GlcNAc(b1-6)GalNAc
# In short: as §1
# [35] = molecular target: Gal(a1-3)Gal(b1-4)[Fuc(a1-3)]GlcNAc
# In short: as §1
# [36] = molecular target: Gal(a1-3)Gal(b1-4)[Fuc(a1-3)]GlcNAc(b1-2)Man(a1-3)[Gal(a1-3)Gal(b1-4)[Fuc(a1-3)]GlcNAc(b1-2)Man(a1-6)]Man(b1-4)GlcNAc(b1-4)GlcNAc
# In short: as §1
# [37] = molecular target: Gal(a1-3)GalNAc
# In short: as §1
# [38] = molecular target: Gal(a1-3)[Gal(a1-4)]Gal(b1-4)GlcNAc
# In short: as §1
# [39] = molecular target: Gal(a1-4)Gal(b1-3)GlcNAc(b1-2)Man(a1-3)[Gal(a1-4)Gal(b1-3)GlcNAc(b1-2)Man(a1-6)]Man(b1-4)GlcNAc(b1-4)GlcNAc
# In short: as §1
# [40] = molecular target: Gal(a1-4)Gal(b1-4)Glc
# In short: as §1
# [41] = molecular target: Gal(a1-4)Gal(b1-4)GlcNAc
# In short: as §1
# [42] = molecular target: Gal(a1-4)Gal(b1-4)GlcNAc(b1-2)Man(a1-3)[Gal(a1-4)Gal(b1-4)GlcNAc(b1-2)Man(a1-6)]Man(b1-4)GlcNAc(b1-4)GlcNAc
# In short: as §1
# [43] = molecular target: Gal(a1-4)Gal(b1-4)GlcNAc(b1-3)Gal(b1-4)Glc
# In short: as §1
# [44] = molecular target: Gal(a1-4)GlcNAc
# In short: as §1
# [45] = molecular target: Gal(a1-6)Glc
# In short: as §1
binder,measurement,setting,value
B1,glycan array binding signal (z-score),[1],-0.388
same,glycan array binding signal (z-score),[2],2
same,glycan array binding signal (z-score),[3],-0.355
same,glycan array binding signal (z-score),[4],-0.386
same,glycan array binding signal (z-score),[5],0.661
same,glycan array binding signal (z-score),[6],0.367
same,glycan array binding signal (z-score),[7],-0.371
same,glycan array binding signal (z-score),[8],-0.397
same,glycan array binding signal (z-score),[9],-0.367
same,glycan array binding signal (z-score),[10],-0.398
same,glycan array binding signal (z-score),[11],2.62
same,glycan array binding signal (z-score),[12],-0.35
same,glycan array binding signal (z-score),[13],0.199
same,glycan array binding signal (z-score),[14],-0.398
same,glycan array binding signal (z-score),[15],-0.325
same,glycan array binding signal (z-score),[16],-0.339
same,glycan array binding signal (z-score),[17],-0.282
same,glycan array binding signal (z-score),[18],-0.388
same,glycan array binding signal (z-score),[19],-0.435
same,glycan array binding signal (z-score),[20],-0.331
same,glycan array binding signal (z-score),[21],-0.356
same,glycan array binding signal (z-score),[22],-0.316
same,glycan array binding signal (z-score),[23],1.05
same,glycan array binding signal (z-score),[24],-0.239
same,glycan array binding signal (z-score),[25],1.32
same,glycan array binding signal (z-score),[26],-0.296
same,glycan array binding signal (z-score),[27],-0.162
same,glycan array binding signal (z-score),[28],7.53
same,glycan array binding signal (z-score),[29],-0.186
same,glycan array binding signal (z-score),[30],-0.301
same,glycan array binding signal (z-score),[31],-0.248
same,glycan array binding signal (z-score),[32],0.877
same,glycan array binding signal (z-score),[33],-0.376
same,glycan array binding signal (z-score),[34],-0.225
same,glycan array binding signal (z-score),[35],0.668
same,glycan array binding signal (z-score),[36],0.036
same,glycan array binding signal (z-score),[37],-0.407
same,glycan array binding signal (z-score),[38],2.38
same,glycan array binding signal (z-score),[39],0.182
same,glycan array binding signal (z-score),[40],-0.21
same,glycan array binding signal (z-score),[41],-0.333
same,glycan array binding signal (z-score),[42],-0.315
same,glycan array binding signal (z-score),[43],-0.119
same,glycan array binding signal (z-score),[44],-0.387
same,glycan array binding signal (z-score),[45],-0.363
